Data taken from the supplement of paper PMC10126150.
Sequences with one replicate were seen in a single cluster, so their values are uncertain.

Each sequence was assayed on ATP (assay: switch fluorescence ratio, 500 uM ATP over buffer (Cy3 cluster intensity, sum of 5 cycles each) (fold (ratio)); higher = stronger signal-on switching upon ATP binding; sequences stand for … in TCGTCGGCAGCGTCAGATGTGTATAAGAGACAGTTTTTTTTTTTTTTTTTTTTTTTTT…TC). Settings: aptamer strand: ATP DNA aptamer (quencher-CACCTGGGGGAGTATTGCGGAGGAAGG + anchor), 100 nM annealed; ATP concentration: 500 uM; one replicate.
In short: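 The fluorescence ratio divides summed target-cycle Cy3 intensity by summed buffer-cycle Cy3 intensity for each cluster and is averaged per switch-domain sequence. Cy3-labelled switching-strand clusters on a modified Illumina MiSeq flow-cell were annealed to 100 nM quencher-labelled ATP aptamer, then imaged in selection buffer and again after 15 min with 500 uM ATP at 22 °C. Five such cycles were run, with NaOH stripping and re-annealing between them, and clusters outside 100-1000 RFU were excluded.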
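Further: ATP exposure 15 min at 22 °C before imaging.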

Sequence | switch fluorescence ratio
AGAATTAGG | 0.932
AGAATTGCTT | 1.01
AGAATTGGCC | 1.02
AGAATTGGCT | 0.971
AGAATTGTCT | 0.974
AGACAAAATC | 1.07
AGACAAGCGG | 1.03
AGACACGTT | 1.05
AGACACTGTA | 1.2
AGACAGAGA | 1.05
AGACAGATTT | 1.01
AGACATAAGA | 1.05
AGACCACCAC | 1.16
AGACCGATTG | 0.967
AGACCGGGTG | 1.19
AGACCTGAGC | 1.1
AGACGAATGT | 0.988
AGACGGAAAA | 0.977
AGACGGATC | 1.03
AGACGGGTAT | 0.997
AGACGGTG | 1
AGACGGTGGC | 0.997
AGACTAAATC | 1.01
AGACTCCCAC | 1.93
AGACTCGG | 0.956
AGACTGGTCA | 0.958

Sequence | switch fluorescence ratio
AGACTTCGTT | 0.967
AGACTTGGCC | 1.04
AGACTTGGGC | 0.943
AGACTTGGTA | 0.948
AGAGAACTTT | 1.02
AGAGAAGGCA | 1.03
AGAGAAGGTG | 1.11
AGAGATTTCG | 1.02
AGAGCGCCTT | 1.05
AGAGCGGGTG | 1.09
AGAGCGTGTG | 1.02
AGAGCTGACT | 0.956
AGAGGAGGCT | 0.97
AGAGGCGGCG | 0.969
AGAGGGAGGC | 0.921
AGAGGGCAG | 0.965
AGAGGGCCTG | 0.951
AGAGGGCCTT | 0.986
AGAGGGTATA | 0.963
AGAGGTTAGT | 1.01
AGAGTAGAAA | 0.965
AGAGTAGGG | 1.03
AGAGTCATCC | 1.01
AGAGTCCTAT | 1
AGAGTCTAAT | 0.968
AGAGTCTCAT | 0.92

Sequence | switch fluorescence ratio
AGAGTGGCTG | 0.993
AGAGTGGGTT | 1.03
AGAGTTAGCG | 1.19
AGAGTTGCGG | 0.954
AGATAACACC | 1.03
AGATAATGAT | 0.979
AGATACGTC | 1.03
AGATACTCG | 1.1
AGATAGGAAT | 0.981
AGATAGGGTG | 1.03
AGATAGTAGC | 0.987
AGATATGCGG | 1.11
AGATCATATG | 0.998
AGATCCACAT | 1.03
AGATGACCCA | 0.993
AGATGACGAG | 1.01
AGATGAGCTC | 0.981
AGATGATGTC | 0.939
AGATGGAACA | 1.05
AGATGGGATC | 1.04
AGATGGTGGC | 1.31
AGATGTCTCC | 1.03
AGATGTGCGC | 1.01
AGATTAAAAC | 0.99
AGATTAATAT | 0.972
AGATTATACT | 1.02

Sequence | switch fluorescence ratio
AGATTGGTCG | 0.914
AGATTTCTCA | 1.03
AGATTTGGGT | 0.997
AGATTTTGGA | 0.979
AGCAAAGCTA | 0.949
AGCAAGTTTC | 1.21
AGCAATCCAT | 1.21
AGCAATTCTG | 1.13
AGCACACT | 1.15
AGCACATGGC | 1.01
AGCACCATAT | 1.16
AGCACCTAAA | 0.995
AGCACGGCGT | 1.04
AGCACTAGGA | 1.05
AGCACTATCT | 1.07
AGCAGCGATT | 0.981
AGCAGCGGAC | 1.77
AGCAGCGTGG | 0.979
AGCAGGGTCA | 0.979
AGCAGGTCAT | 0.987
AGCATAAAAT | 1.08
AGCATAGTGT | 0.979
AGCATGGAA | 1.01
AGCATGTAGC | 1.07
AGCATGTGAG | 0.961
AGCATGTGCG | 0.885

Sequence | switch fluorescence ratio
AGCATTCGGC | 1.01
AGCCAAGTTG | 1.04
AGCCAATGAA | 1.03
AGCCAGATTT | 1.03
AGCCAGTTAG | 0.981
AGCCATCACG | 0.996
AGCCATCTGT | 0.953
AGCCATCTTG | 1.01
AGCCCAATTT | 0.994
AGCCCCTGGA | 1.02
AGCCCTCCGG | 1.21
AGCCGAAGCC | 1.21
AGCCGTGAGT | 0.984
AGCCGTGGTA | 0.911
AGCCTAGTAA | 1
AGCCTATAGT | 1.02
AGCCTCAGGA | 1.01
AGCCTCCCAT | 1.34
AGCCTCGCCG | 0.999
AGCCTCGGTC | 0.974
AGCCTGTCG | 0.981
AGCCTTAGTT | 0.975
AGCCTTATCG | 1.01
AGCGAAGATT | 0.954
AGCGAATAGC | 1.02
AGCGACAAAC | 1.28

Sequence | switch fluorescence ratio
AGCGACAGCT | 0.997
AGCGACGCAT | 3
AGCGACTCGT | 1
AGCGAGAACG | 1.04
AGCGAGGTGA | 1.03
AGCGATTTTG | 1.07
AGCGCACTAG | 1.16
AGCGCCCGAG | 0.997
AGCGCCGCG | 1.02
AGCGCTTACA | 1.01
AGCGCTTTCG | 1.01
AGCGGAATCC | 1.09
AGCGGAGGGC | 0.99
AGCGGATTAT | 0.982
AGCGGCAATC | 4.32
AGCGGCTTGG | 0.967
AGCGGGATCC | 1.01
AGCGGTATC | 1.08
AGCGGTATGG | 1.04
AGCGGTGTG | 1.01
AGCGTACTAA | 1.06
AGCGTCATAG | 0.94
AGCGTGGCAG | 0.966
AGCGTGGTTG | 0.964
AGCGTTGAGC | 1.01
AGCTAATC | 1.1

Sequence | switch fluorescence ratio
AGCTACAAGC | 1.05
AGCTACAGTG | 1.04
AGCTACATCG | 1
AGCTATTAAA | 0.969
AGCTCAATGA | 0.976
AGCTCCACGG | 1.16
AGCTCCGTCG | 1.08
AGCTCGGCTT | 0.973
AGCTCGTCTT | 0.963
AGCTGAGCGT | 1.05
AGCTGATGCA | 1.01
AGCTGCACGA | 1.08
AGCTGCCCCG | 1.16
AGCTGGTGAT | 1.03
AGCTGTGGCT | 0.943
AGCTTACACA | 1.07
AGCTTCCACC | 2.22
AGCTTCGTGT | 0.995
AGCTTGACGC | 1.04
AGCTTGCGCT | 1
AGCTTGGATG | 0.973
AGCTTTCATA | 0.969
AGCTTTGTAA | 0.996
AGCTTTGTGT | 0.951
AGCTTTTATA | 1.01
AGGAAACCTA | 1.09

Sequence | switch fluorescence ratio
AGGAAACTAT | 1.04
AGGAAATCAG | 0.991
AGGAAGAATG | 1.01
AGGAAGACAG | 0.988
AGGAAGTGGA | 1.01
AGGAATGCGA | 1.22
AGGAATTATT | 1.01
AGGACAGGGA | 0.959
AGGACAGTAC | 1.61
AGGACAGTCT | 1.07
AGGACATGGT | 0.988
AGGACGAAGG | 0.974
AGGACGAGCC | 1.05
AGGACGTCGT | 1.06
AGGACTTCTG | 0.998
AGGAGCTGTG | 0.984
AGGAGCTTA | 0.963
AGGAGGCTTA | 0.928
AGGAGGGGAA | 1
